Results: publication PMC11911400, “Mechanism of ASF1 engagement by CDAN1” (Nature Communications, 2025)
These are yes or no findings as the source states them, for the method shown. Binding seen in cells or lysates may run through a third protein. Some results given as binding are weak or reduced against the parent protein; the word gives no strength. Where a sequence is shown, tags or fusion partners need not be part of it.

Molecular target: T1, Strep-tagged CDAN1 (ST-CDAN1), wildtype (human, UniProt Q8IWY9 1-1227)
T1 construct: Codanin-1 (CDAN1), human, 1227 residues; cDNA from Horizon Discovery/Dharmacon, its point mutation S421F corrected; same construct used in Expi293 and in Flp-In 293 T-REx cells; dimer by SEC-MALS and cryo-EM; also called Strep-CDAN1; WT CDAN1; source: Expi293, transiently transfected, in lysate and purified in complexes (anti-FLAG, Strep-Tactin); Flp-In 293 T-REx, transiently transfected, in …
T1 sequence: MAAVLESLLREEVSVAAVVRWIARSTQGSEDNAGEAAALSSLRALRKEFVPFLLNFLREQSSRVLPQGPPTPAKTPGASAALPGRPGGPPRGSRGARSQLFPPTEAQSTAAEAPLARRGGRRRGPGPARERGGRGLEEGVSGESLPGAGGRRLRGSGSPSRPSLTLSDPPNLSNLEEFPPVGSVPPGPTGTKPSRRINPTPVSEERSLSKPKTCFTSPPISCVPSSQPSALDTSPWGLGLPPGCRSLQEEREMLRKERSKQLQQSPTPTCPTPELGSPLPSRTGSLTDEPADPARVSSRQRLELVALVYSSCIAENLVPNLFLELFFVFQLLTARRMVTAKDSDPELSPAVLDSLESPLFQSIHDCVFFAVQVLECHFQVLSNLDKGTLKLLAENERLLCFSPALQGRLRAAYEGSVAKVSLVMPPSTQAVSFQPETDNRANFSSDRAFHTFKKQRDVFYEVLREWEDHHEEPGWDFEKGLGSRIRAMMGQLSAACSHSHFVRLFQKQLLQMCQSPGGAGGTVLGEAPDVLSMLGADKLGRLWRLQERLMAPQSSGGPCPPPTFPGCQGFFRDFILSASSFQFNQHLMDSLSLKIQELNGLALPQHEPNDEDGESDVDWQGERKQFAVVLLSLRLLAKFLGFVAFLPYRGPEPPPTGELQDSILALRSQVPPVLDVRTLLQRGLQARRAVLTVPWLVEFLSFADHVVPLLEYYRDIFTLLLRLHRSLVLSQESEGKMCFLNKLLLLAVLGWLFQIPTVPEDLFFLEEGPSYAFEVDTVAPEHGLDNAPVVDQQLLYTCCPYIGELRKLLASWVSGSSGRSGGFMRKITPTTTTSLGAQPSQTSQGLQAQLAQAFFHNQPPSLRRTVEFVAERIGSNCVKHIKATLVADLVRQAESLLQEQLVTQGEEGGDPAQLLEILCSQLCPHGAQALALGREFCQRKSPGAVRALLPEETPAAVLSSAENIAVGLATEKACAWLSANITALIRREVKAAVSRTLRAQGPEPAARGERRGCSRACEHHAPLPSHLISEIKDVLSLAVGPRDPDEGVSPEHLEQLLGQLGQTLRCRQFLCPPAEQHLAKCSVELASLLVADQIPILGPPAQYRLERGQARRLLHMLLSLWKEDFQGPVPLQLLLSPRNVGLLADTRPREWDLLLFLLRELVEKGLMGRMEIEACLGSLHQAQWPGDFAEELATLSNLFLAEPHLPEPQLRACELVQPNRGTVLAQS
Test: pull-down; Strep-Tactin pulldown of transiently transfected ST-CDAN1 variants from Flp-In 293 T-REx lysates; endogenous ASF1A, ASF1B and CDIN1 detected by immunoblotting; IP buffer with 1% Triton X-100, 1 hr at 4 °C

B1: FLAG-tagged CDIN1 (F-CDIN1) (natural protein, UniProt Q9Y2V0 1-281, looked up)
chain: MILTKAQYDEIAQCLVSVPPTRQSLRKLKQRFPSQSQATLLSIFSQEYQKHIKRTHAKHHTSEAIESYYQRYLNGVVKNGAAPVLLDLANEVDYAPSLMARLILERFLQEHEETPPSKSIINSMLRDPSQIPDGVLANQVYQCIVNDCCYGPLVDCIKHAIGHEHEVLLRDLLLEKNLSFLDEDQLRAKGYDKTPDFILQVPVAVEGHIIHWIESKASFGDECSHHAYLHDQFWSYWNRFGPGLVIYWYGFIQELDCNRERGILLKACFPTNIVTLCHSIA
notes: C15orf41); cDNA synthesized by IDT; source: Expi293, transiently transfected, in lysate and purified in complexes (anti-FLAG, Strep-Tactin); not shown: 3xFLAG, N-terminal, kept
B1 was tested, and the binding was “binds”.
